{"source": "the RNAGym collection of RNA variant scans (doi:10.1093/nar/gkz1192)", "parents": {"B1": {"name": "CPEB3 Ribozyme (parent)", "chain": "UAACAGGGGGCCACAGCAGAAGCGUUCACGUCGCAGCCCCUGUCAGAUUCUGGUGAAUCUGCGAAUUCUGCUGUAUAUCUC"}}, "note": "Read counts are not given, so values of variants with three or more changes are uncertain."}
{"variants_of": "B1", "assay": "self-cleavage, relative activity (ratio to wild type); higher = more cleavage; in vitro, sequencing", "procedure,_shortened": "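Libraries of CPEB3 self-cleaving ribozyme mutants came from rounds of error-prone PCR and carried barcodes, which DNA sequencing matched to variants. In vitro transcription used T7 RNA polymerase at 37°C for 5 hours, with a further 15 min in DNase I before EDTA stopped the reaction; the ribozymes cleaved during both steps. The RNA was reverse transcribed with template switching and sequenced on Illumina. Relative activity is the cleaved/total read fraction of a variant divided by that of the unmutated ribozyme, averaged over three batches with at least 5 reads.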"}
{"variant": "UAACAGGGGGCCACAGCAGAGGCGUUCACGUCGCAGCCCCUGUCAGAUUCUGGUGAAUCUGCGAGUUCUGCUGUAUAUCCC", "note": "[A21G A65G U80C]", "self-cleavage": 0.38}
{"variant": "UAACAGGGGGCCACAGCAGAGGCGUUUACGUCGUAGCCCCUGUCAGAUUCUGGUGAAUCUGCGAAUUCUGCUGUACAUCUC", "note": "[A21G C27U C34U U76C]", "self-cleavage": 0.07}
{"variant": "UAACAGGGGGCCACAGCAGAGGCGUUCACGUCGCAGCCCCUGUCAGGUUCUGGUGAAUCUGCGAAUUCUGCUGUAUAUCCC", "note": "[A21G A47G U80C]", "self-cleavage": 0.61}
{"variant": "UAACAGGGGGCCACAGCAGAGGGGAUCACGUCGCAGCCCCUGUCAGAUUCUGGUGAAUCUGCGGAUUCUGCUGUAUAUCUC", "note": "[A21G C23G U25A A64G]", "self-cleavage": 0.27}
{"variant": "UAACAGGGGGCCACAGCAGAGGCGUUCACGUCGCAGCCCCUGUCAGAUUCUGGUGAAUCUGCGUACUCUGCUGUAUAUCUC", "note": "[A21G A64U U66C]", "self-cleavage": 0.31}
{"variant": "UAACAGGGGGCCACAGCAGAGGUGUUCACGUCGCAGCCCCUGUCAGAUUCUGGCGAAUCUGCGAAUUCUGCCGUAUAUCUC", "note": "[A21G C23U U54C U72C]", "self-cleavage": 0.14}
{"variant": "UAACAGGGGGCCACAGCAGAGGCGUUCACGUCGCAGCCCCUGUCUGAUUCUGGUGAAUCUGCGAAUUCAGCUGUAUAUCUC", "note": "[A21G A45U U69A]", "self-cleavage": 0.34}
{"variant": "UAACAGGGGGCCACAGCAGAGGAGUUCACGUCGCGGCCCCUGUCAGAUUCUUGUAAAUCUGCGAAUUCUGCUGUAUAUCUC", "note": "[A21G C23A A35G G52U G55A]", "self-cleavage": 0.05}
{"variant": "UAACAGGGGGCCACAGCAGAGGGGUUCACGUCGCAGCCCCUGUCUGAUUCUGGUGAAUAUGCGGAUUAUGUUGUAUAUCUC", "note": "[A21G C23G A45U C59A A64G C68A C71U]", "self-cleavage": 0.04}
{"variant": "UAACAGGGGGCCACAGCAGAGGUGUUCACGUCGCGGCCCCCGUCAGAUCCUGGUGAAUCUGCGAAUUCUGCAGUAUAUCCC", "note": "[A21G C23U A35G U41C U49C U72A U80C]", "self-cleavage": 0.08}
{"variant": "UAACAGGGGGCCACAGCAGAGGCGUUCACGUCGCAGCCCCUGUCUGAAUCUGGUGAAUCUGCGAAUUCUGCUGUAUAUCUC", "note": "[A21G A45U U48A]", "self-cleavage": 0.21}
{"variant": "UAACAGGGGGCCACAGCAGAGGCGUUCACGUCGCAGCCCCUGUCAGGUUCCGGUGAAUCUGCGAAUUCGGCCGUAUAUCUC", "note": "[A21G A47G U51C U69G U72C]", "self-cleavage": 0.1}
{"variant": "UAACAGGGGGCCACAGCAGAGGCGUUGACGUCGCAGCCCCUGUCAGAUACUGGUGAAUCUGCGAAUUCUGCUGUAUAUCUC", "note": "[A21G C27G U49A]", "self-cleavage": 0.07}
{"variant": "UAACAGGGGGCCACAGCAGAGGCGUUCACGUCGCAGCCCCUGUCAGAUUCUGGUGAAUCUGCGAAUUCUGCUGUGUAUCAC", "note": "[A21G A75G U80A]", "self-cleavage": 0.61}
{"variant": "UAACAGGGGGCCACAGCAGAGGUGUUCACGUCGUAGCCCCUGUCAGAUUCUGGUGAAUCGGCGAAUUCUGCUGUAUAUCUC", "note": "[A21G C23U C34U U60G]", "self-cleavage": 0.13}
{"variant": "UAACAGGGGGCCACAGCAGAGGCGUUCACGUCGCAGCCCCUGUCUGAUUCUGGUGCAUCUGCGAAUUCUGCUGUAUAUCUC", "note": "[A21G A45U A56C]", "self-cleavage": 0.12}
{"variant": "UAACAGGGGGCCACAGCAGAGGCGUUCACGUCGCAGCCCCUGUCGGAUUCUGGUGAAUCUGCGAAUUCUGCUGUACUUCUC", "note": "[A21G A45G U76C A77U]", "self-cleavage": 0.49}
{"variant": "UAACAGGGGGCCACAGCAGAGGCGUUCACGUCGCAGCCCCUGUCAGGUUCUGGUGAAUCUGCGAAUUCUGCUGUACAUCCC", "note": "[A21G A47G U76C U80C]", "self-cleavage": 0.68}
{"variant": "UAACAGGGGGCCACAGCAGAGGCGUUCACGUCGCAGCCCCUGUCAGAUUCUGGUGAAUCUGCGAGUUCCGCAGUAUAUCUC", "note": "[A21G A65G U69C U72A]", "self-cleavage": 0.06}
{"variant": "UAACAGGGGGCCACAGCAGAGGUGUUCACAUCGCAGCCCCUGUCAGAUUCCGGUGAAUCUGCGGAUUCUGCUGUAUACCUC", "note": "[A21G C23U G30A U51C A64G U78C]", "self-cleavage": 0.07}
{"variant": "UAACAGGGGGCCACAGCAGAGGCGUUCACGUCGCAGCCCCUGUCAGAUUCUGGUGAAUCUGCGGAUUCUGCCGUAUACCUC", "note": "[A21G A64G U72C U78C]", "self-cleavage": 0.55}
{"variant": "UAACAGGGGGCCACAGCAGAGGCGUUCACGUCGCAGCCCCUGUCAGAUUCUGGUGACUCUGCGGAUUCAGCUGUAUAUCUC", "note": "[A21G A57C A64G U69A]", "self-cleavage": 0.34}
{"variant": "UAACAGGGGGCCACAGCAGAGGCGUUCACGUCGCAGCCCCUGUCAGAUUCUGGUGGGUCUGCGAAUUCUGCUGUAUAUCUC", "note": "[A21G A56G A57G]", "self-cleavage": 0.05}
{"variant": "UAACAGGGGGCCACAGCAGAGGCGUUCACGUCGCAGCCCCUGUCUGAUUCUGGUGAACCUGCGAAUUCUGCUGUAUAUCUC", "note": "[A21G A45U U58C]", "self-cleavage": 0.03}
{"variant": "UAACAGGGGGCCACAGCAGAGGUGUUCGCGUCGCAGCCCCUGCCAGAUUCUGGUGAAUCUGCGUAUUCUCCUGUAUAUCUC", "note": "[A21G C23U A28G U43C A64U G70C]", "self-cleavage": 0.11}
{"variant": "UAACAGGGGGCCACAGCAGAGGCGUUCACGUCGCAGCCCCUGUCUGGUUCUGGUGAAUCAGCGAAUUCUGCUGUAUAUCUC", "note": "[A21G A45U A47G U60A]", "self-cleavage": 0.48}
{"variant": "UAACAGGGGGCCACAGCAGAGGCGUUCACGUCGCAGCCCCUGUCAGAUUCUGGUGAGUCUGCGAUUUCUGCUGAAUAUCUC", "note": "[A21G A57G A65U U74A]", "self-cleavage": 0.08}
{"variant": "UAACAGGGGGCCACAGCAGAGGCGUUCACGUCGCAGCCCCUGUCAGGUUCUGGUGAAUCUGCGAAUUAUGCUGUAUAUCUC", "note": "[A21G A47G C68A]", "self-cleavage": 0.11}
{"variant": "UAACAGGGGGCCACAGCAGAGGGGUUCACGUCGCAGCCCCUGUCAGACACUGGUGAAUCUGCGAAUUCUGCUGUAUAUCUC", "note": "[A21G C23G U48C U49A]", "self-cleavage": 0.32}
{"variant": "UAACAGGGGGCCACAGCAGAGGCGUUCACGUCGCAGCCCCUGUCGGAUUCUGGUGAAUCUGCGAAUUCAGCUGUAUAGCUC", "note": "[A21G A45G U69A U78G]", "self-cleavage": 0.16}
{"variant": "UAACAGGGGGCCACAGCAGAGGCGUUCACGUCGCAGCCCCUGUCAGGUUCUGGUGAAUCUGCGAAUUCUACUGUAUGUCUC", "note": "[A21G A47G G70A A77G]", "self-cleavage": 0.23}
{"variant": "UAACAGGGGGCCACAGCAGAGGCGUUCACGUCGCAGCCCCUGUCAGAUUCUGGUGGAUCUGCGAUUUCUGCUGUAUAUCUC", "note": "[A21G A56G A65U]", "self-cleavage": 0.48}
{"variant": "UAACAGGGGGCCACAGCAGAGGGGUACACGUCGCAGCCCCUGUCAGAUUCUGGUGAGUCUGCGAAUUCUGCUGUAUAUCUC", "note": "[A21G C23G U26A A57G]", "self-cleavage": 0.31}
{"variant": "UAACAGGGGGCCACAGCAGAGGCGUUCACGUCGCAGCCCCUGUCAGAUUCUGGUGAGUCUGCGAACACUGCUGUAUAUCUC", "note": "[A21G A57G U66C U67A]", "self-cleavage": 0.8}
